Assay results published in PubChem BioAssay AID1745845 (National Center for Advancing Translational Sciences (NCATS), 2022).
The whole screen tested about 360,000 compounds, of which about 2,600 (0.72%) were called active. Inconclusive means that the source gave no clear call. Such entries were picked first, then a sample of the others. Calls come from the whole dose curve; as a rule, active = well fitted inhibition curve with a large enough effect; inconclusive = small, poorly fitted or top-dose-only effect; inactive = no such curve, though single readings can be large or run the other way. Potencies beside an inconclusive call are fits to weak or partial responses and may not hold up.

Assay: Primary qHTS for Inhibitors of ATXN expression; note: nearly all actives have a fitted effect of over 55% in size
Conditions: HEK-293 ATXN2-luciferase reporter, luminescence, 24 h; activity change, negative = inhibition: at 57 µM (top of the series)
Procedure, shortened: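 qHTS (up to 57 uM final) was run with 24 h compound exposure of reporter cells at 37 °C. Each well was multiplexed: SteadyGlo luminescence measured ATXN2-luciferase expression after a fluorogenic Gly-Phe-AFC viability readout (25 uM final).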
% is set by controls: 0 for no effect and ±100 for the full control effect; potency is the fitted concentration of half-maximal effect; tags give direction and shape of the fitted curve.

Compound | Potency | activity change, negative = inhibition
O=C(C(Cl)Cl)N1c2ccccc2OCC1c1ccccc1 (stereo not drawn) | inconclusive: 25.1 µM [inhibitor, partial curve, poor fit] | 
Cc1ccc(C)n1-c1cccc(S(=O)(=O)N2CCOCC2)c1 |  | inconclusive: -39.7% [inhibitor]
Cc1nnc(SCC(=O)N2c3ccccc3C(C)(c3ccccc3)CC2(C)C)s1 (stereo not drawn) | inconclusive: 8.91 µM [inhibitor, partial curve, poor fit] | 
CC1=C(C(=O)OCc2ccc3c(c2)OCO3)C(c2ccccc2)NC(=O)N1 (stereo not drawn) | inconclusive: 14.1 µM [inhibitor, partial curve] | 
CC1=C(C(=O)N2CCOCC2)CC(CC(=O)NC(c2ccccc2)c2ccccc2)C(=O)N1Cc1ccc(C(C)(C)C)cc1 (stereo not drawn) | inconclusive: 39.8 µM [inhibitor, single point] | 
C#Cc1ccc([C@H]2C=C(C(=O)O)O[C@@H](OCCCCO)C2)cc1 |  | inactive: -1.51%
O=C(Nc1ccccc1C(=O)NCCCN1CCOCC1)c1ccc(Cl)cc1 |  | inactive: 0.964%
O=C1C=C(c2ccccc2)C(=O)N1Nc1ccccc1 | inconclusive: 39.8 µM [inhibitor, single point] | 
Cc1ccc(O)c(/C=N/NC(=O)COc2ccc3c(C)cc(=O)oc3c2)c1 | inconclusive: 35.5 µM [inhibitor, single point] | 
COc1ccc(CCNS(=O)(=O)c2ccc(F)c(C(=O)Nc3ccc(Cl)cc3)c2)cc1OC | inconclusive: 39.8 µM [inhibitor, single point] | 
OC(c1cc(Cl)cc(Cl)c1)c1ncc(-c2cccc(F)c2)[nH]1 (stereo not drawn) | inconclusive: 39.8 µM [inhibitor, partial curve, poor fit] | 
O=C(CNC(=O)C1COc2ccccc2O1)N/N=C/c1ccc(O)cc1O (stereo not drawn) | active: 12.6 µM | 
O=C(Nc1ccc([N+](=O)[O-])cc1)Nc1nc(-c2ccc(Cl)s2)cs1 | active: 7.94 µM | 
O=C(c1cc2sccc2n1Cc1ccccc1)N1CCN(c2nc3ccccc3s2)CC1 | inconclusive: 10 µM [inhibitor, partial curve, poor fit] | 
COC(=O)c1cccc(C#CC(NP(=O)(c2ccccc2)c2ccccc2)c2ccccc2)c1 (stereo not drawn) | inconclusive: 35.5 µM [inhibitor, single point] | 
CCCCCCN1C[C@@H](n2cc(C3CC3)nn2)[C@H](O)C[C@@H]1c1ccc(Cl)cc1 | inconclusive: 39.8 µM [inhibitor, single point] | 
C[C@@H]1CN([C@H](C)CO)S(=O)(=O)c2ccc(-c3ccc(C#N)cc3)cc2O[C@H]1CN(C)C(=O)Nc1cc(F)ccc1F | active: 15.8 µM | 
COc1ccc2c(c1)C1NC(=S)NC(C)(O2)C1C(=O)Nc1ccc(C)cc1C (stereo not drawn) |  | inactive: -20.8%
Cc1cc(C)cc(NC(=O)c2ccc3c(O)c(S(=O)(=O)c4ccccc4)c(=O)[nH]c3c2)c1 |  | inactive: 0.106%
COc1cc(NC(=O)NCCN2CCN(c3ccc(Cl)cc3)CC2)ccc1C |  | inactive: -18.6%
O=C1/C(=C/c2ccccc2)SC(=S)N1CC(=O)N1CCCCC1c1cccnc1 (stereo not drawn) | inconclusive: 39.8 µM [inhibitor, single point] | 
CC(=O)c1cccc(-c2ccnc3c2CC(C(=O)Nc2ccc(Cl)cc2)O3)c1 (stereo not drawn) | inconclusive: 31.6 µM [inhibitor, single point] | 
CN(CCO)c1nc2c(c(=O)n(Cc3ccc(Cl)cc3)c(=O)n2C)n1C |  | inactive: 2.37%

Compound | Potency | activity change, negative = inhibition
CCCc1nc2cc3c(cc2[nH]1)n(C)c(=O)n3C |  | inactive: 19%
Cc1ccc(C(CC(=O)O)NC(=O)c2ccc(S(=O)(=O)N3CC(C)OC(C)C3)cc2)cc1 (stereo not drawn) | inconclusive: 2.38 µM [inhibitor, partial curve, poor fit] | 
COc1ccc(C(=O)Nc2ccc(Cl)c(S(=O)(=O)N3CCOCC3)c2)cc1 | inconclusive: 39.8 µM [inhibitor, single point] | 
CN(C)S(=O)(=O)c1cccc2c1C(=O)c1ccccc1C2=O |  | inactive: 6.07%
CCc1nc2c(OCc3cc(Cl)cc(Cl)c3)cccn2c1N(C)C(=O)CC(C)C | inconclusive: 39.8 µM [inhibitor, partial curve, poor fit] | 
COc1c(O)ccc2c1CN1CCc3cc4c(cc3C1C2)OCO4 (stereo not drawn) | inconclusive: 39.8 µM [inhibitor, partial curve, poor fit] | 
COc1cc2[nH]c(=S)n(Cc3ccccc3)c(=O)c2cc1OC | inconclusive: 37.7 µM [inhibitor, single point] | 
Cc1cc(C)cc(C(=O)Nc2ccc(NC(=O)c3cccs3)cc2)c1 | inconclusive: 15.8 µM [inhibitor, partial curve, poor fit] | 
O=C(c1ccco1)N1CCN(c2nc(C(F)(F)F)nc3c2nnn3Cc2ccccc2)CC1 | inconclusive: 39.8 µM [inhibitor, single point] | 
COc1ccc(CCNC(=O)[C@H](C)N2C(=O)N3CCc4c([nH]c5ccccc45)[C@@]3(C)C2=O)cc1OC | inconclusive: 25.1 µM [inhibitor, single point] | 
O=C(CSc1n[nH]c(-c2ccccn2)n1)Nc1ccccc1 | inconclusive: 39.8 µM [inhibitor, single point] | 
COc1cc(/C=C/c2ccc(/C=C/c3cc(OC)c(OC)c(OC)c3)cc2)cc(OC)c1OC | inconclusive: 16.8 µM [inhibitor, partial curve, poor fit] | 
Cc1ccc(C(=O)Nc2ccc(S(=O)(=O)N3CCCC3)cc2)o1 |  | inactive: 2.48%
Oc1c(Cl)cc(Cl)c2c1NCCC2 | inconclusive: 28.2 µM [inhibitor, partial curve, poor fit] | 
O=C(Nc1nc(-c2ccccn2)cs1)c1ccc(Br)s1 | inconclusive: 12.6 µM [inhibitor, partial curve] | 
O=C(Nc1ccc(S(=O)(=O)N2CCCCC2c2cccnc2)cc1)c1ccc(F)cc1 (stereo not drawn) | inconclusive: 35.5 µM [inhibitor, single point] | 
Cc1ccc(CSc2ccc3nnc(-c4ccccn4)n3n2)cc1 |  | inactive: 3.81%
CC(=O)c1ccc(NC(=S)NC2CCCC(C)C2C)cc1 (stereo not drawn) |  | inactive: 34.2%
c1ccc(COc2cccc(-c3cc4nc(NCc5cccs5)ccn4n3)c2)cc1 |  | inactive: -4.59%
C=CCc1ccccc1OCCn1c(C2CC(=O)N(Cc3ccc(F)cc3)C2)nc2ccccc21 (stereo not drawn) | inconclusive: 39.8 µM [inhibitor, single point] | 
O=C(CCC(=O)N1CCN(S(=O)(=O)c2ccc(Cl)cc2)CC1)Nc1cccc(Br)c1 |  | inactive: 10.9%
CC1(C)c2[nH]c3ccccc3c2C[C@H]2C(=O)N(Cc3ccc(F)cc3)C(=O)N21 | inconclusive: 39.8 µM [inhibitor, single point] | 
O=C(c1cnc2n(c1=O)CCS2)N(c1ccccc1)C1CCCCC1 |  | inactive: 5.83%

Compound | Potency | activity change, negative = inhibition
ClC1=C(Cl)C(Cl)=C(Cl)C1=C/C=C/c1ccccc1 | inconclusive: 7.08 µM [inhibitor, single point] | 
NC(=O)C1CCN(Cc2nc3cc(Cl)ccc3c(=O)[nH]2)CC1 |  | inactive: -22.6%
Cc1cc(C)n2c(NCc3ccccc3)c(-c3cc4ccccc4o3)nc2n1 |  | inactive: 0%
CC1=C(C(=O)Nc2ccccc2)C(c2ccco2)C(C#N)=C(SCC(=O)OC(C)C)N1 (stereo not drawn) |  | inactive: 0.803%
COc1c(C)cc(C(O)c2ncc(-c3ccc4ccccc4c3)[nH]2)cc1C (stereo not drawn) |  | inactive: 2.16%
CC1=C/C(=N\OS(=O)(=O)c2ccccc2)C=CC1=O | inconclusive: 39.8 µM [inhibitor, single point] | 
COc1ccccc1CNC(=O)C12CC3CC(CC(C3)C1)C2 |  | inactive: -6%
CC(C)Nc1ccc(C(CC(N)=O)NC(=O)Cc2ccc(Br)cc2)cc1[N+](=O)[O-] (stereo not drawn) | inconclusive: 14.1 µM [inhibitor, partial curve] | 
Cc1ccc(OCCSc2nc3ccccc3n2CC(=O)NC(C)C)cc1 |  | inactive: 6.56%
Cn1c(SCc2nc(-c3ccc(Cl)cc3)no2)nnc1-c1ccccc1 | inconclusive: 25.1 µM [inhibitor, single point] | 
O=[N+]([O-])c1ccc(S(=O)(=O)CC(CN2CCOCC2)N2CCOCC2)cc1 (stereo not drawn) |  | inactive: 18.4%
O=C(N/N=C/c1ccc([N+](=O)[O-])o1)c1cn2ccc3ccccc3c2n1 | inconclusive: 0.447 µM [inhibitor, partial curve, poor fit] | 
Cc1cc(C)cc(NC(=O)CCc2nc3sc4c(c3c(=O)[nH]2)CCCC4)c1 | active: 8.91 µM | 
C/C(=N\NC(=O)c1nnn(-c2nonc2N)c1CN(C)c1ccccc1)c1ccccc1O | inconclusive: 5.62 µM [inhibitor, single point] | 
Cc1ccc(C(=O)CSc2nnc(-c3ccccc3)n2-c2ccccc2)o1 |  | inactive: -9.07%
COc1cccc(C(=O)/C=C/c2ccc(OCC#N)c(OC)c2)c1 | inconclusive: 22.4 µM [inhibitor, single point] | 
CC(C)Cc1nnc(NC(=O)CCC(=O)N2CCN(Cc3ccc(Cl)cc3)CC2)s1 | inconclusive: 1.78 µM [inhibitor, partial curve, poor fit] | 
COc1ccc2nc3cc(Cl)ccc3c(Nc3cc(C(C)C)c(O)cc3C)c2c1 | inconclusive: 22.4 µM [inhibitor, partial curve, poor fit] | 
O=C(NCc1ccccn1)c1cc(-c2ccc(Cl)cc2)oc1C(F)(F)F |  | inactive: -37.6%
Cc1ccc(SCCC(=O)N/N=C/c2ccccc2O)cc1 | active: 25.1 µM | 
CC(C)(C)c1ccc(C(=O)N2CCC(=O)N(C(COCc3ccccc3)Cc3ccccc3)CC2)cc1 (stereo not drawn) | inconclusive: 25.1 µM [inhibitor, single point] | 
O=C(CN1C(=O)CSc2cc(S(=O)(=O)N3CCCCCC3)ccc21)NCCc1ccccc1 |  | inactive: 8.36%
